Holding throughout (experiment): Primary Screen for Target Class Profiling of Small Molecule Inhibitors of Methyltransferases
The target in test [1] is Glycine N-methyltransferase (Homo sapiens) (UniProt Q14749). The settings on record: purified enzyme, MTase-Glo SAH luminescence; measured here: GNMT inhibition; at 40 µM; stronger effect = lower value. The source says: (§1) PI: Matthew D. Hall Ph.D. and Quinlin M. Hanson Ph.D.
(§2) National Center for Advancing Translational Sciences (NCATS)
(§3) National Institute of Health (NIH), Rockville, MD
(§4) Target class profiling (TCP) is a chemical biology approach amenable to investigating understudied biological targets. TCP is achieved by developing a generalizable assay platform and applying it to screen a curated set of compound libraries against representative members of a target class. Small molecule methyltransferases (SMMTase) are a subclass of methyltransferase that act on metabolites to modulate signaling pathways, metabolize xenobiotics, or balance the available methyl pool. We screened four curated libraries totaling 27,574 unique compounds against the SMMTases nicotinamide N-methyltransferase (NNMT), phenylethanolamine N-methyltransferase (PNMT), histamine N-methyltransferase (HNMT), glycine N-methyltransferase (GNMT), catechol O-methyltransferase (COMT), and guanidinoacetate N-methyltransferase (GAMT). The data generated by this TCP can be leveraged for informed tool molecule development. For example, in the associated publication we identified a chemotype of HNMT-selective inhibitors. Additionally, we identified a putative SMMTase-selective inhibitor with potential as a tool molecule for studying broader methyltransferase biology.
(§5) High-through put screening assays were developed at the National Center for Advancing Translational Science (NCATS) for the enzymes NNMT, PNMT, HNMT, GNMT, COMT, and GAMT. Enzymatic activity was measured as a function of SAM cofactor conversion using the MTase Glo kit (Promega) for all enzymes. All assays were performed in 1536-well format with substrates and SAM concentrations at KM values. Enzyme concentration and assay timing were optimized for 10-20% SAM conversion. Initial screening of 27,574 compounds was done as single-point assays using the highest compound concentration (40 uM). […] These compounds were replated in 11-point dose response and assayed against NNMT, PNMT, HNMT, GNMT, COMT, GAMT, and a counter-assay. The IC50 and efficacy (maximal response) values were determined for each dose-response curve. These values are also accounted for in the area under the curve (AUC) values.
(§6) PROTOCOL TABLE (as described by Inglese J, Shamu CE and Guy RK. 2007)
(§7) SEQUENCE No. (e.g., 1, 2, 3, etc.); […] (e.g., Cells, Incubation, Reagent, etc.); VALUE; DESCRIPTION.
(§8) 1; Reagent; 2 uL; SMMTase Enzyme (2x) in reaction buffer, columns 1- 48.
(§9) 2; Reagent; 1 uL; SAM (4x) in reaction buffer, columns 1-48.
(§10) 3; Controls; 23 nL; DMSO in column 4; sinefungin in DMSO (0 uM - 40 uM) in 7-point 1:2 dilution series (n = 2) in column 2.
(§11) 4; Compounds; 23 nL; Columns 5-48.
(§12) 5; Reagent; 1 uL; Substrate (4x) in reaction buffer, columns 2-48.
(§13) 6; Time; 20-30 min; Incubation.
(§14) 7; Reagent; 1 uL; MTase-Glo reagent (5X), columns 1-48.
(§15) 8; Time; 30 min; Incubation.
(§16) 9; Reagent; 5 uL; MTase-Glo Detection reagent, columns 1-48.
(§17) 10; Time; 30 min; Incubation, luminescence evolution.
(§18) 11; Detection; Luminescence; ViewLux uHTS Microplate Imager (PerkinElmer).
(§19) NOTES (numbers refer to Sequence numbers above)
(§20) 1, 2, 5. White Medium Binding Greiner 1536-well plates (Cat #789175-F, Greiner Bio-One, Monroe, NC); Reaction buffer: 50 mM Tris, pH 8.0, 3 mM MgCl2, 1 mM EDTA, 50 mM NaCl, 1 mM DTT, and 0.1 mg/mL BSA. Evaporation was prevented by covering assay plates with metal lids containing holes to allow gas diffusion.
(§21) 1. Six SMMTase were profiled: HNMT, GNMT, PNMT, COMT, NNMT, GAMT
(§22) 5. The corresponding substrate was used for each enzyme: HNMT - 5.3 uM Histamine; GNMT - >500 uM Glycine; PNMT - 16.2 uM Norephinephrine; COMT - 13.7 uM Norephinephrine; NNMT - 3.8 uM Nicotinamide; GAMT - 2.5 uM Guanidinoacetate.6, 8, 10. Room temperature
(§23) 6. Final reaction conditions: 10 nM COMT, 5 uM SAM, 15 uM norepinephrine, 50 mM Tris, pH 8.0, 3 mM MgCl2, 1 mM EDTA, 50 mM NaCl, 1 mM DTT, and 0.1 mg/mL BSA; refer to tables 2 and S1 for specific timing.
8. […]

The target in test [2] is Guanidinoacetate N-methyltransferase (Homo sapiens) (UniProt Q14353). Particulars: purified enzyme, MTase-Glo SAH luminescence; measured here: GAMT inhibition; at 40 µM; stronger effect = lower value.
Text: as §1, §2, §3, §4, §5, §6, §7, §8, §9, §10, §11, §12, §13, §14, §15, §16, §17, §18, §19, §20, §21, §22, §23
8. […]

In test [3] the target is Histamine N-methyltransferase (Homo sapiens) (UniProt P50135). The settings on record: purified enzyme, MTase-Glo SAH luminescence; measured here: HNMT inhibition; at 40 µM; stronger effect = lower value.
Text: as §1, §2, §3, §4, §5, §6, §7, §8, §9, §10, §11, §12, §13, §14, §15, §16, §17, §18, §19, §20, §21, §22, §23
8. […]

Test [4] concerns the target Nicotinamide N-methyltransferase (Homo sapiens) (UniProt P40261). Particulars: purified enzyme, MTase-Glo SAH luminescence; measured here: NNMT inhibition; at 40 µM; stronger effect = lower value.
Text: as §1, §2, §3, §4, §5, §6, §7, §8, §9, §10, §11, §12, §13, §14, §15, §16, §17, §18, §19, §20, §21, §22, §23
8. […]

The target of test [5] is Phenylethanolamine N-methyltransferase (Homo sapiens) (UniProt P11086). The settings on record: purified enzyme, MTase-Glo SAH luminescence; measured here: PNMT inhibition; at 40 µM; stronger effect = lower value.
Text: as §1, §2, §3, §4, §5, §6, §7, §8, §9, §10, §11, §12, §13, §14, §15, §16, §17, §18, §19, §20, §21, §22, §23
8. […]

Consider 14 molecules from PubChem BioAssay AID1745853 (National Center for Advancing Translational Sciences (NCATS), 2022).

The other results are listed elsewhere or left out. Further columns of the screen follow, without active or inactive calls.
% is scaled to controls: 0 for no effect and ±100 for the full control effect.

Consider `Cc1ccccc1CN1CC(=O)N(Cc2ccc(F)cc2)c2ccccc2S1(=O)=O`, for which the activity change, negative = inhibition in test [1] is 11%; in test [2] it was 0.797%; in test [3], 16.7%; in test [4], -4.67%; in test [5] it was 2.14%.
For `CCCCNC(=O)CCc1nnc2n(CCc3ccccc3)c(=O)c3ccccc3n12`, the activity change, negative = inhibition in test [1] is 1.33%; in test [2], 0.429%; in test [3] it was 9.03%; in test [4], 11.5%; in test [5], -0.96%.
On to `CC(C)CCNc1nc2c(-c3ccccc3)nnn2c2ccccc12`, for which the activity change, negative = inhibition in test [1] is -6.74%; in test [2] it was -3.71%; in test [3], -7.93%; in test [4], -11.9%; in test [5], -9.94%.
In the case of `COCC1CN(C)CC12CCN(C(=O)COc1cccc(C)c1)CC2` (stereo not given), the activity change, negative = inhibition in test [1] is -3.93%; in test [2], -2.9%; in test [3] it was -12.1%; in test [4] it was -2.36%; in test [5], 1.85%.
As to `C=CCn1c(=O)c2ccc(C(=O)NC(C)CC)cc2n2c(=O)n(CC(=O)NC(C)CC)nc12` (stereo not given), the activity change, negative = inhibition in test [1] was -1.59%; in test [2], 3.23%; in test [3] it was -0.583%; in test [4] it was -6.95%; in test [5], -1.86%.
`CCOCCCNC(=O)CNC(=O)C1(C)Cn2c(cc3ccccc32)C(=O)N1C` (stereo not given): the activity change, negative = inhibition is -4.29% in test [1]; 0% in test [2]; 0.857% in test [3]; -2.06% in test [4]; -1.65% in test [5].
`Cc1ccc(N2C(=O)c3cc4oc(C)cc4n3CC2(C)C(=O)NC2CCCCCC2)cc1` (stereo not given): the activity change, negative = inhibition in test [1] was 3.19%; in test [2], 0.72%; in test [3], 9.98%; in test [4], 12.2%; in test [5], 5.41%.
For `O=C1Nc2ccccc2CC12CCCN(C1COC1)C2` (stereo not given), in that order: -3.5%, -3.77%, -0.452%, -1.84% and -3.7%.
With `COc1ccc(-c2nnn3c2nc(NCCc2ccc(OC)c(OC)c2)c2ccccc23)cc1`, the activity change, negative = inhibition in test [1] was -32.3%; in test [2], 10.7%; in test [3] it was 7.6%; in test [4], 11.3%; in test [5], -1.27%.
As to `C=CCn1c(=O)c2ccc(C(=O)NC(C)C)cc2n2c(=O)n(CC(=O)Nc3ccccc3)nc12`, the activity change, negative = inhibition in test [1] worked out at 4.24%; in test [2], 0%; in test [3] it was 0.984%; in test [4], 1.96%; in test [5] it was 4.22%.
For the molecule `CC(C)c1noc(-c2ccn3c(CNC(=O)c4ccoc4)nnc3c2)n1`, the activity change, negative = inhibition in test [1] is -2.52%; in test [2], -0.894%; in test [3], 3.13%; in test [4], -5.7%; in test [5], 16.1%.
For `CN(C(=O)c1ccccc1)C1CCOc2ccccc21` (stereo not given), the activity change, negative = inhibition was -5.56% in test [1]; -13% in test [2]; -3.72% in test [3]; -20.3% in test [4]; -18.5% in test [5].
As to `O=C(NCC1CCCO1)c1cc(-c2ccccc2F)cc2c1OCCN2Cc1cccnc1` (stereo not given), the activity change, negative = inhibition in test [1] is -15.8%; in test [2], -3.94%; in test [3], -4.84%; in test [4], -13.7%; in test [5], -2.97%.
For `COCCCNC(=O)C1(C)Cn2nc(-c3ccccc3)cc2C(=O)N1c1ccc(OC)cc1` (stereo not given), in that order: 3.37%, 0%, 5.04%, 7.91% and -0.19%.
